Over roughly 18,000 sequences, “TetR repression strength (sort-seq, GFP reporter)” has its median near 0.23; the highest 2% begin near 0.68. The list shows a part of the results.
Molecular target: TetR (class B, Tn10) (UniProt P04483)
Assay: TetR repression strength (sort-seq, GFP reporter) (relative to tetO2 = 1); higher = stronger repression
Conditions: E. coli
Method in brief: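 Repression strength was calculated by subtracting the read-weighted mean bin from the top bin index plus one and dividing by the unaltered operator's value. The plasmid library was low-copy in E. coli SIG10-MAX, with eight randomized operator positions between a constitutive promoter and sfGFP and constitutive TetR. Cultures grew 5 h at 37 °C in LB containing 50 µg/mL chloramphenicol before 10^6 cells were sorted by FACS into 13 fluorescence bins, each sequenced on Illumina. Three independent transformations were averaged for members having ≥30 reads in all replicates and a CV ≤0.5.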

Sequence of UniProt P04483 (P04483 whole entry): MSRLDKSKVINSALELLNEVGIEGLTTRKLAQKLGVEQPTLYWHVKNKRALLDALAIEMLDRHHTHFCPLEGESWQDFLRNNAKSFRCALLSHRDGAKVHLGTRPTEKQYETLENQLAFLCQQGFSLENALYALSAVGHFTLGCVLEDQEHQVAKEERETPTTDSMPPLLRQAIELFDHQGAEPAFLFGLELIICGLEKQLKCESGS

Sequence	TetR repression strength
TCCCTTGCAGTCTGGGAGA	0.219
TCCCACATAGTAGATGAGA	0.272
TCCCAATCAGTCGGCGAGA	0.29
TCCCCCTTAGTCTGCGAGA	0.202
TCCCTCTGAGTCCGAGAGA	0.22
TCCCAGATAGTAATGGAGA	0.187
TCCCCATGAGTAGTGGAGA	0.139
TCCCGTTGAGTGGTCGAGA	0.1
TCCCGTTGAGTTGCGGAGA	0.126
TCCCAGCGAGTGGGAGAGA	0.386
TCCCGCCGAGTGATAGAGA	0.477
TCCCAGTGAGTTCGGGAGA	0.166
TCCCACGGAGTTAGAGAGA	0.412
TCCCTATGAGTGCGGGAGA	0.24
TCCCGCTAAGTCGTTGAGA	0.206
TCCCCAGAAGTGGTAGAGA	0.255
TCCCGGGCAGTTAGAGAGA	0.155
TCCCGAGGAGTCTAGGAGA	0.186
TCCCCCGTAGTGGGAGAGA	0.312
TCCCTCTGAGTGTTTGAGA	0.384
TCCCATGGAGTCATGGAGA	0.205
TCCCGTGCAGTGTGGGAGA	0.295
TCCCAATAAGTTTGTGAGA	0.0461
TCCCACGTAGTTAGCGAGA	0.0518
TCCCAGTGAGTTGGAGAGA	0.303
TCCCGAATAGTAAAGGAGA	0.347

Sequence	TetR repression strength
TCCCTTTAAGTTAACGAGA	0.404
TCCCGCCGAGTGACAGAGA	0.484
TCCCCCTGAGTCATTGAGA	0.526
TCCCAAATAGTGGTTGAGA	0.0746
TCCCGGTGAGTCAAGGAGA	0.206
TCCCCGGGAGTCCGAGAGA	0.353
TCCCAAGGAGTAAGTGAGA	0.149
TCCCAATCAGTGTGGGAGA	0.153
TCCCGGCTAGTGGCGGAGA	0.147
TCCCGTCCAGTAATGGAGA	0.52
TCCCCCACAGTCGATGAGA	0.246
TCCCGTAAAGTGTGAGAGA	0.0929
TCCCAATCAGTAACGGAGA	0.802
TCCCATGGAGTCGGTGAGA	0.0966
TCCCATAGAGTCAAGGAGA	0.365
TCCCGTGTAGTGGCAGAGA	0.171
TCCCAATGAGTCTTCGAGA	0.163
TCCCATGAAGTACGGGAGA	0.317
TCCCACTTAGTTGCCGAGA	0.539
TCCCCCTCAGTTAGCGAGA	0.22
TCCCAGCGAGTGAGCGAGA	0.153
TCCCGGTAAGTCGTAGAGA	0.269
TCCCGCACAGTTCACGAGA	0.18
TCCCAAGTAGTGCAAGAGA	0.349
TCCCGCAGAGTCAACGAGA	0.163
TCCCTTGGAGTGCGGGAGA	0.246

Sequence	TetR repression strength
TCCCGATTAGTGGCAGAGA	0.148
TCCCAGTTAGTCCTCGAGA	0.244
TCCCGGCGAGTAGAAGAGA	0.418
TCCCAGGGAGTCTGTGAGA	0.278
TCCCCAGGAGTGGGTGAGA	0.428
TCCCGGTAAGTTCCGGAGA	0.166
TCCCACGGAGTGGCGGAGA	0.0816
TCCCGCCAAGTAGTGGAGA	0.268
TCCCTGGAAGTGGCTGAGA	0.32
TCCCATCCAGTAGCCGAGA	0.364
TCCCGCAGAGTAGTCGAGA	0.188
TCCCACTGAGTGCCTGAGA	0.139
TCCCTGATAGTTGTGGAGA	0.354
TCCCTATTAGTAGCAGAGA	0.143
TCCCATCTAGTTGGGGAGA	0.219
TCCCTAGTAGTATTGGAGA	0.215
TCCCGATGAGTGGTTGAGA	0.14
TCCCAGTTAGTGGTCGAGA	0.202
TCCCGAAGAGTGGTAGAGA	0.353
TCCCTAAGAGTGAATGAGA	0.276
TCCCATCAAGTTATTGAGA	0.363
TCCCGGACAGTTGGAGAGA	0.299
TCCCCTACAGTAGTAGAGA	0.0811
TCCCCGAAAGTATTCGAGA	0.0399
TCCCGAAAAGTATGGGAGA	0.268
TCCCATGCAGTCAATGAGA	0.146

Sequence	TetR repression strength
TCCCTGACAGTGTGCGAGA	0.39
TCCCGTTGAGTGTGTGAGA	0.251
TCCCATCGAGTAATAGAGA	0.319
TCCCGACGAGTTTGTGAGA	0.161
TCCCGGTCAGTCTTTGAGA	0.165
TCCCCTTCAGTAGCGGAGA	0.344
TCCCAGGCAGTAGGGGAGA	0.203
TCCCATATAGTCTACGAGA	0.298
TCCCGTCGAGTGCAGGAGA	0.0421
TCCCGGTGAGTCCACGAGA	0.261
TCCCGTGGAGTCTTGGAGA	0.207
TCCCAAACAGTGTTGGAGA	0.236
TCCCATTGAGTTGCCGAGA	0.24
TCCCTTACAGTGCTAGAGA	0.207
TCCCAAGCAGTCCGGGAGA	0.183
TCCCTGACAGTGGAGGAGA	0.18
TCCCCCGAAGTGATCGAGA	0.41
TCCCGGGAAGTCATGGAGA	0.154
TCCCGGATAGTGTTCGAGA	0.0981
TCCCTACCAGTTTCAGAGA	0.31
TCCCTCTAAGTGGGAGAGA	0.0484
TCCCGACGAGTGGGAGAGA	0.183
TCCCAGAAAGTGACGGAGA	0.0499
TCCCCGTCAGTTGCGGAGA	0.0612
TCCCGGCGAGTCGTGGAGA	0.227
TCCCTAAAAGTTCGAGAGA	0.226

Sequence	TetR repression strength
TCCCTATGAGTCCAAGAGA	0.267
TCCCTTATAGTCAGTGAGA	0.452
TCCCGGACAGTTCTTGAGA	0.298
TCCCAAGAAGTTAGGGAGA	0.207
TCCCTCGTAGTATTAGAGA	0.233
TCCCAAAGAGTGTGTGAGA	0.123
TCCCGGGTAGTGAGAGAGA	0.179
TCCCGTGCAGTGGGTGAGA	0.148
TCCCGTCCAGTTCTAGAGA	0.276
TCCCTTACAGTTCCAGAGA	0.363
TCCCTCGGAGTGGGCGAGA	0.119
TCCCGATTAGTGGACGAGA	0.237
TCCCGGAGAGTTTCTGAGA	0.191
TCCCTACGAGTCTCAGAGA	0.197
TCCCTCCTAGTGAACGAGA	0.24
TCCCGGCTAGTGTAGGAGA	0.405
TCCCGTGCAGTGCGGGAGA	0.291
TCCCTTACAGTCAGGGAGA	0.207
TCCCGACGAGTTGGGGAGA	0.139
TCCCGCTGAGTCAAGGAGA	0.279
TCCCGGGCAGTAAAGGAGA	0.248
TCCCATCCAGTGAATGAGA	0.353
TCCCGGTTAGTATCTGAGA	0.284
TCCCATGTAGTGACTGAGA	0.242
TCCCGCGAAGTCGCAGAGA	0.131
TCCCATTCAGTACAGGAGA	0.47

Sequence	TetR repression strength
TCCCCGAAAGTAGGGGAGA	0.244
TCCCTCCCAGTTATCGAGA	0.34
TCCCGGTGAGTACTAGAGA	0.343
TCCCAGGTAGTCGAGGAGA	0.464
TCCCTGGTAGTGTTAGAGA	0.216
TCCCTTTTAGTCCCGGAGA	0.311
TCCCCATCAGTACCTGAGA	0.548
TCCCTGAGAGTGCGTGAGA	0.232
TCCCGGTGAGTTGTGGAGA	0.222
TCCCGGCGAGTGGGCGAGA	0.158
TCCCTAATAGTTATTGAGA	0.372
TCCCCTACAGTAACCGAGA	0.518
TCCCATCAAGTACCGGAGA	0.151
TCCCTTCAAGTCGGGGAGA	0.207
TCCCGATCAGTCATCGAGA	0.477
TCCCAGTAAGTATACGAGA	0.308
TCCCTTTTAGTTCTGGAGA	0.207
TCCCTCGGAGTGTAGGAGA	0.113
TCCCGTGGAGTGCGTGAGA	0.264
TCCCGACGAGTAGTTGAGA	0.3
TCCCTTCGAGTAAGAGAGA	0
TCCCATGGAGTAACAGAGA	0.233
TCCCCTTCAGTCCTCGAGA	0.421
TCCCATGTAGTTGGCGAGA	0.217
TCCCGGGCAGTTTGAGAGA	0.23
TCCCGGCCAGTGCTTGAGA	0.406

Sequence	TetR repression strength
TCCCGTGGAGTTGGAGAGA	0.27
TCCCCTGTAGTAGAAGAGA	0.263
TCCCTTACAGTGCCGGAGA	0.221
TCCCGCCGAGTAGGGGAGA	0.19
TCCCCGGGAGTTCCTGAGA	0.0921
TCCCGAGAAGTTCGAGAGA	0.243
TCCCGTTAAGTTGAGGAGA	0.105
TCCCGCAGAGTTCTCGAGA	0.0296
TCCCCAAAAGTGGTAGAGA	0.238
TCCCAGCGAGTACATGAGA	0.512
TCCCCGGAAGTGGCGGAGA	0.146
TCCCGGCTAGTGTGAGAGA	0.303
TCCCAACGAGTCGGCGAGA	0.234
TCCCGGATAGTATGGGAGA	0.06
TCCCGTTGAGTCGCGGAGA	0.256
TCCCTTGAAGTCTCTGAGA	0.252
TCCCGCTCAGTCAATGAGA	0.447
TCCCAGTAAGTGCTAGAGA	0.515
TCCCCTGAAGTTGAAGAGA	0.269
TCCCAAGTAGTTGTGGAGA	0.0698
TCCCAGATAGTTTTTGAGA	0.311
TCCCGGAAAGTAACTGAGA	0.0283
TCCCAGTGAGTGCGCGAGA	0.286
TCCCCTATAGTCGTGGAGA	0.284
TCCCTACTAGTCAGGGAGA	0.14
TCCCGCTCAGTGGTGGAGA	0.176

Sequence	TetR repression strength
TCCCACGTAGTAGTTGAGA	0.254
TCCCATGTAGTGGGGGAGA	0.189
TCCCTAGCAGTGGAAGAGA	0.457
TCCCAGGCAGTGTTAGAGA	0.14
TCCCAAGGAGTTGTGGAGA	0.302
TCCCAGAGAGTGCAAGAGA	0.468
TCCCAATGAGTTCGTGAGA	0
TCCCAATCAGTTCAGGAGA	0.288
TCCCACGCAGTAGGCGAGA	0.253
TCCCGTGGAGTCGGGGAGA	0.267
TCCCTAGTAGTAGGGGAGA	0.52
TCCCAATAAGTAATAGAGA	0.525
TCCCGTTAAGTCGCGGAGA	0.391
TCCCTGTTAGTAGAGGAGA	0.195
TCCCTTTAAGTTGTCGAGA	0.2
TCCCAGTCAGTTCCTGAGA	0.0212
TCCCTTATAGTAACCGAGA	0.194
TCCCGATTAGTTTGAGAGA	0.287
TCCCGGACAGTCGACGAGA	0.0556
TCCCACTAAGTTAGCGAGA	0.271
TCCCTATGAGTAGAGGAGA	0.118
TCCCGTTTAGTGTTTGAGA	0.0592
